Data: PubChem BioAssay AID1768 (National Center for Advancing Translational Sciences (NCATS), 2009)
Several values for one entry are separate records, joined by “and”; a condition that tells them apart may be missing. Identical values can stand only once. Hit rate of the full screen: of about 270,000 compounds, about 620 (0.23%) were called active. The shares of active, inactive and inconclusive entries below differ from those in the screen. The call rests on the fitted dose curve; in most records, active means well fitted inhibition curve with a large enough effect in the polarisation, with a control signal flat (not every such curve was filed as active); inconclusive means small, poorly fitted or top-dose-only effect, or effect the other way, or a change in a side signal; inactive means no such curve, though single readings can be large or run the other way; the % refers to the polarisation. Potencies beside an inconclusive call are fits to weak or partial responses and may not hold up. A note “side channel” means that the fit belongs to a control or component signal, not to the main read-out.

Target: Menin (Homo sapiens) (UniProt O00255)
UniProt O00255, sequence (O00255 whole entry, looked up): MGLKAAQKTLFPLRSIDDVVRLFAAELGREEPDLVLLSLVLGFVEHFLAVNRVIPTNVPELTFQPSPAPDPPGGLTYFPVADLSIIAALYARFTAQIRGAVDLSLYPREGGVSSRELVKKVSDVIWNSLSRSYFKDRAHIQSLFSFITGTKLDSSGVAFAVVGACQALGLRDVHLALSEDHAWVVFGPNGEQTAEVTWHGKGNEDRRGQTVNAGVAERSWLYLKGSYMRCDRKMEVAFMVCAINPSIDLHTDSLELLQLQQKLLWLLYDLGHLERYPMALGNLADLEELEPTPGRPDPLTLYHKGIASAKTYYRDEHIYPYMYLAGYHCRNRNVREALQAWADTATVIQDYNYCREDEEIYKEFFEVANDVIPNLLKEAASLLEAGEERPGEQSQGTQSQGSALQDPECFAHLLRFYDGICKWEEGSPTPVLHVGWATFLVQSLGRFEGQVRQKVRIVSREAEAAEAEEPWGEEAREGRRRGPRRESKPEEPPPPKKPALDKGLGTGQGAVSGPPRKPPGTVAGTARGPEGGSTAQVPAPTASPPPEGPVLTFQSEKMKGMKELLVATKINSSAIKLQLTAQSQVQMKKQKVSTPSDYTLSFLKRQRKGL
Assay: qHTS Assay for Inhibitors Targeting the Menin-MLL Interaction in MLL Related Leukemias: Competition With Texas Red Labeled MLL-derived Mutant Peptide; on FP activity change, negative = inhibition: % of control where 0% means no effect
Conditions: fluorescence polarization; FP activity change, negative = inhibition: at 61.6 µM (top of the series)
Potency means the concentration at half of the fitted maximal effect; tags describe the fitted curve by direction and shape or compound fluorescence and quenching.

SMILES | Potency | FP activity change, negative = inhibition
COc1cc(NS(=O)(=O)c2ccc(Br)cc2)c(OC)cc1NC(=O)c1ccco1 | inconclusive: 10 µM [quencher, side channel, partial curve] | –
CCc1ccc(-c2nc(CN3CCC(C(=O)NCCN(CC)c4ccccc4)CC3)c(C)o2)cc1 | inconclusive: 28.2 µM [inhibitor, partial curve] | –
Cc1cc(C)c2cc(C)c(SCC(=O)NCc3ccco3)nc2c1 | inconclusive: 17.8 µM [fluorescent, side channel, partial curve] | –
Oc1ccccc1-c1nc(NCC2CCCO2)c2ccccc2n1 (centres undefined) | inconclusive: 12.6 µM [quencher, side channel, partial curve] | –
Cc1ccc(NC(=O)COc2cccnc2[N+](=O)[O-])cc1S(=O)(=O)N1CCCCC1 | inconclusive: 39.8 µM [quencher, side channel, single point] | –
COc1cc(/C=C2\SC(=Nc3ccc(F)cc3)N(c3ccc(F)cc3)C2=O)ccc1OCC(=O)O | inconclusive: 12.6 µM [quencher, side channel, partial curve] | –
CCOC(=O)c1cc(C(=O)Nc2ccc(S(=O)(=O)Nc3ccc(OC)cc3)cc2)nn1C | inconclusive: 28.2 µM [quencher, side channel, partial curve] | –
Cc1ccnc(NS(=O)(=O)c2ccc(NC(=O)c3ccc([N+](=O)[O-])s3)cc2)n1 | inconclusive: 31.6 µM [quencher, side channel, partial curve] | –
COc1ccc(OC)c(NC(=O)C(=O)NNC(=O)COc2ccc(Br)cc2C)c1 | inconclusive: 31.6 µM [quencher, side channel, partial curve] | –
CCN(CC1CCCN(CCc2cccc(F)c2)C1)C(=O)c1ccc(CSC)o1 (centres undefined) | – | inactive: -17.5%
CCSc1n[nH]c2nc3c(c(=O)n12)C1(CCCC1)Cc1ccccc1-3 | inconclusive: 35.5 µM [quencher, single point] | –
Oc1c(Cl)cc(Cl)cc1C=Nc1cc(C(F)(F)F)ccc1N1CCc2ccccc2C1 | inconclusive: 25.1 µM [quencher, side channel, single point] | –
Cc1ccc(C(=O)Nn2c(O)c(C=C3N=c4ccccc4=N3)sc2=S)cc1 | inconclusive: 17.8 µM [quencher, side channel, partial curve] | –
Cc1ccc(NC(=O)NCc2ccc3c(c2)OCO3)cc1C | inconclusive: 31.6 µM [inhibitor, single point] | –
COc1ccc(/C=C/c2nc(-c3ccccc3O)n[nH]2)cc1 | inconclusive: 22.4 µM [quencher, side channel, partial curve] | –
COC(=O)C1=CN(Cc2cccs2)C=C(C(=O)OC)C1c1cccc(OC)c1OC | inconclusive: 12.6 µM [fluorescent, side channel, partial curve] | –
COc1cccc(-c2ccc3ncnc(NCCc4c[nH]c5ccc(OC)cc45)c3c2)c1 | inconclusive: 22.4 µM [quencher, side channel, partial curve] | –
CCOC(=O)C1(CCOc2ccccc2)CCN(Cc2ccc(COC)o2)CC1 | inconclusive: 14.1 µM [fluorescent, side channel, partial curve] | –
Oc1cc2c(cc1O)[C@@H]1c3ccc(O)c(O)c3OC[C@]1(O)C2 | – | inactive: -5.68%
Cc1ccc(S(=O)(=O)N/N=C2/CC(c3ccccc3)Oc3ccccc32)cc1 (centres undefined) | inconclusive: 39.8 µM [inhibitor, single point] | –
COc1ccc(NC(=O)c2ccc(NCC3CCCO3)c([N+](=O)[O-])c2)cc1 (centres undefined) | inconclusive: 25.1 µM [quencher, side channel, single point] | –
Cc1cccc(-n2nc3c(c2NC(=O)c2ccco2)CSC3)c1C | inconclusive: 35.5 µM [inhibitor, single point] | –
CCOC(=O)Cn1nnnc1C(C(C)C)N(Cc1cccs1)Cc1cc2cc(C)ccc2[nH]c1=O (centres undefined) | inconclusive: 3.16 µM [fluorescent, side channel, partial curve] | –
COc1ccc(C)cc1Nc1n[n+](C)c(-c2c3ccccc3cc3ccccc23)s1 | inconclusive: 3.98 µM [inhibitor, full curve, poor fit] | –
CCC(C)(C)NC(=O)C(c1cccc(OC)c1OC)N(C(=O)CCC(=O)Nc1cc(C)on1)c1ccc2c(c1)OCCO2 (centres undefined) | inconclusive: 39.8 µM [fluorescent, side channel, partial curve] | –
O=C(COc1ccccc1Cl)NC(=S)Nc1ccccc1N1CCCC1 | inconclusive: 11.2 µM [quencher, side channel, partial curve] | –
CN(C)c1ccc(C(=C2C=CC(=[N+](C)C)C=C2)c2ccc(N(C)C)cc2)cc1 | inconclusive: 2.82 µM [fluorescent, side channel, full curve] and inconclusive: 7.94 µM [fluorescent, side channel, full curve] | –

SMILES | Potency | FP activity change, negative = inhibition
Cc1ccc2c(c1)c1nnc(SCC(=O)N3CCCc4ccccc43)nc1n2CC(=O)O | inconclusive: 15.8 µM [quencher, side channel, partial curve] | –
Cc1ccc2c(CN3CCN(Cc4ccccc4)CC3)cc(=O)oc2c1C | inconclusive: 39.8 µM [inhibitor, single point] | –
Cc1ccc(OCCSCc2nnc(NC(=O)Nc3cccc(Cl)c3)s2)cc1 | inconclusive: 4.47 µM [quencher, side channel, full curve, poor fit] | –
COc1ccc(C(CCN(Cc2ccc(OC)c(OC)c2)C(C)=O)C(C)C)cc1 (centres undefined) | inconclusive: 8.91 µM [fluorescent, side channel, partial curve] | –
COc1ccc(-c2csc(NC(=S)NC(=O)/C=C/c3ccco3)n2)cc1OC | inconclusive: 8.91 µM [quencher, side channel, partial curve] | –
COc1ccc(C(=O)NCc2ccc3c(c2)cc(C)n3C)cc1 | inconclusive: 39.8 µM [inhibitor, single point] | –
O=C(Nc1cccc(Cl)c1)Nn1cnnc1 | – | inactive: 21.4%
CC(=O)Nc1ccc(S(=O)(=O)NCC2CCC(C(=O)NCc3ccccc3)CC2)cc1 (centres undefined) | inconclusive: 39.8 µM [fluorescent, side channel, single point] | –
Cc1ccc2[nH]c3c(NCc4ccccc4)ncnc3c2c1 | inconclusive: 10 µM [quencher, side channel, partial curve] | –
CCOc1ccc(-n2cnnn2)cc1S(=O)(=O)NCc1ccccc1 | – | inactive: 10.7%
CCOC(=O)c1ccc(NC2Nc3cc(C)nn3S2)cc1 (centres undefined) | inconclusive: 6.31 µM [fluorescent, side channel, full curve] | –
CCN(CC)S(=O)(=O)c1cc([N+](=O)[O-])ccc1NNC(=O)Nc1ccc(Cl)c(Cl)c1 | inconclusive: 8.91 µM [quencher, side channel, partial curve] | –
CO/N=C/c1ccc(Sc2ccccc2)c([N+](=O)[O-])c1 | inconclusive: 12.6 µM [quencher, side channel, partial curve] | –
CCCCn1c(NC(=O)c2ccccc2Cl)c(C#N)c2nc3ccccc3nc21 | inconclusive: 8.91 µM [quencher, side channel, partial curve] | –
COc1cccc(N=Nc2c(C)[nH]n(-c3ccccc3)c2=O)c1 | inconclusive: 11.2 µM [quencher, side channel, partial curve] | –
C(#Cc1ccccc1)C[N+]1(CC#Cc2ccccc2)CCCC1 | – | inactive: -11.6%
Cc1ccccc1CSc1nnc(NC(=O)C2COc3ccccc3O2)s1 (centres undefined) | inconclusive: 5.62 µM [quencher, side channel, partial curve] | –
CN(CCNC(=O)CN1CCN(Cc2ccccc2Cl)C1=O)Cc1ccccc1 | inconclusive: 25.1 µM [fluorescent, side channel, partial curve, poor fit] | –
Cn1cc(CNCc2ccccc2OCC(O)CN2CCc3ccccc3C2)cn1 (centres undefined) | inconclusive: 17.8 µM [inhibitor, partial curve] | –
COc1ccc(CCNCC(C)c2ccccc2)cc1 (centres undefined) | inconclusive: 39.8 µM [inhibitor, single point] | –
Cc1ccc(-n2nnnc2SCC(=O)N(CC(C)C)c2c(N)n(CC(C)C)c(=O)[nH]c2=O)cc1 | inconclusive: 35.5 µM [fluorescent, side channel, single point] | –
O=C(NNS(=O)(=O)c1ccccc1)c1ccc(O)cc1 | inconclusive: 7.08 µM [inhibitor, single point] | –
CS(=O)(=O)Nc1ccc(C2=NN(S(=O)(=O)c3ccc(F)cc3)C(c3ccco3)C2)cc1 (centres undefined) | inconclusive: 39.8 µM [quencher, side channel, single point] | –
COc1cc(CN2CCc3ccc(NC(=O)CCc4ccccc4OC)cc3C2)ccc1O | inconclusive: 11.2 µM [fluorescent, side channel, partial curve] | –
COc1ccc(Cl)cc1Nc1nc(N)c2ccccc2n1 | inconclusive: 11.2 µM [quencher, partial curve] | –
O=C(COc1ccc([N+](=O)[O-])cc1)Nc1ccc2c(c1)nc1n2CCOC1 | inconclusive: 39.8 µM [inhibitor, single point] | –
CCN(CC)S(=O)(=O)c1ccc(NC(=O)c2cc(C(=O)OC)cc([N+](=O)[O-])c2)cc1 | inconclusive: 7.08 µM [quencher, side channel, partial curve] | –
